Laboratory results taken from the RNAGym collection of RNA variant scans (doi:10.1073/pnas.2313332121).
Variants at the background level are over-represented here.

B1: TPR 5TU (parent)
chain: GGAUCUUCUCGAUCUAACAAAAAAGACAAAUCUGCCACAAAGCUUGAGAGCAUCUUCGGAUGCAGAGGCGGCAGCCUUCGGUGGCGCGAUAGCGCCAACGUUCUCAACUAUGACACGCAAAACGCGUGCUCCGUUGAAUGGAGUUUAUCAUG

Variants of: B1
Experiment: polymerase ribozyme fitness, log enrichment relative to wild type (log ratio); higher = more active; in vitro selection for triplet polymerase activity
In short: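 Only genotypes with ≥10 input reads and ≥1 read per output were kept after Illumina sequencing of input and output libraries. These libraries were PCR-built, transcribed mutants of each subunit of a heterodimeric triplet polymerase ribozyme, each put through one triplicate in vitro selection round with frozen incubation at −7 °C, gel excision of extended constructs, streptavidin-bead capture and RT-PCR. Fitness is a logarithmic ratio of genotype enrichment to wild-type enrichment, from inverse-variance-weighted replicate averages, with the logarithm in base 2.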

Going from A40C C93U to A40C C95U U109A A113G, the “polymerase ribozyme fitness (log ratio)” value falls from 0.422 to ≤ -4.2.

A40C C96G C105U U109C U135A and A40C C96U C114U A142U cannot be ordered by “polymerase ribozyme fitness (log ratio)” value: ≤ -4.2 for the first, ≤ -4.2 for the second.

Going from A40C C96U U144G U151G to A40C C99U, the “polymerase ribozyme fitness (log ratio)” value rises from -3.73 to 0.519.

Compared with A40C C125A, A40C G42U G67U C85G G124A U151G is lower in “polymerase ribozyme fitness (log ratio)” value: -0.0259 for the first, ≤ -4.2 for the second.

A40C G46A A91G U104G A119G U148G and A40C G46C G59A G74C A110U A122C cannot be ordered by “polymerase ribozyme fitness (log ratio)” value: ≤ -4.2 for the first, ≤ -4.2 for the second.

First: A40C G48C G81U C85A
Second: A40C G48C U56A G62A G80A C105U
The “polymerase ribozyme fitness (log ratio)” value of the first is higher: -1.52 for the first, ≤ -4.2 for the second.

A40C G48U C79U C93U C103G and A40C G50A C69A C95A cannot be ordered by “polymerase ribozyme fitness (log ratio)” value: ≤ -4.2 for the first, ≤ -4.2 for the second.

First: A40C G50C C95U A150U
Second: A40C G50U C69G C116U
The “polymerase ribozyme fitness (log ratio)” value of the first is lower: ≤ -4.2 for the first, -3.24 for the second.

A40C G50U G59A C76G C87U A89G A107U G126U and A40C G50U U61C C79G C93A cannot be ordered by “polymerase ribozyme fitness (log ratio)” value: ≤ -4.2 for the first, ≤ -4.2 for the second.

A40C G58A C72U U77G and A40C G58C U77A G88U cannot be ordered by “polymerase ribozyme fitness (log ratio)” value: ≤ -4.2 for the first, ≤ -4.2 for the second.

A40C G59A A91U G92C G141U A142G A150C and A40C G59A G71U G94C U127C cannot be ordered by “polymerase ribozyme fitness (log ratio)” value: ≤ -4.2 for the first, ≤ -4.2 for the second.

A40C G59C C63A G65U C87A C95U C125A G126U and A40C G59C C69U C99U A107U cannot be ordered by “polymerase ribozyme fitness (log ratio)” value: ≤ -4.2 for the first, ≤ -4.2 for the second.

A40C G65A C72G G128U U144C and A40C G67C G70A C93G cannot be ordered by “polymerase ribozyme fitness (log ratio)” value: ≤ -4.2 for the first, ≤ -4.2 for the second.

A40C G71A C85A A142C A150C and A40C G71U C93U G124A A138G U145A C149A cannot be ordered by “polymerase ribozyme fitness (log ratio)” value: ≤ -4.2 for the first, ≤ -4.2 for the second.

A40C G74A G81A C95U C116G and A40C G83A C87G cannot be ordered by “polymerase ribozyme fitness (log ratio)” value: ≤ -4.2 for the first, ≤ -4.2 for the second.

First: A40C G83C U90A C95G C149G
Second: A40C G84A A97U
The “polymerase ribozyme fitness (log ratio)” value of the first is lower: ≤ -4.2 for the first, -2.32 for the second.

Compared with A40C G84A C123A C132U U135G G141C U146A, A40C G84A G94A C131U U139A is higher in “polymerase ribozyme fitness (log ratio)” value: ≤ -4.2 for the first, -4.09 for the second.

A40C G86A C87U and A40C G86A G141C A147C cannot be ordered by “polymerase ribozyme fitness (log ratio)” value: ≤ -4.2 for the first, ≤ -4.2 for the second.

Compared with A40C G86C G88U, A40C G92C is higher in “polymerase ribozyme fitness (log ratio)” value: ≤ -4.2 for the first, -1.84 for the second.

A40C G128U G143U and A40C U44A G59A C93A U109A cannot be ordered by “polymerase ribozyme fitness (log ratio)” value: ≤ -4.2 for the first, ≤ -4.2 for the second.

A40C U44A U45G U77A and A40C U44G G100U A106C cannot be ordered by “polymerase ribozyme fitness (log ratio)” value: ≤ -4.2 for the first, ≤ -4.2 for the second.

A40C U45A C93A and A40C U45C U90G G92A C114G cannot be ordered by “polymerase ribozyme fitness (log ratio)” value: ≤ -4.2 for the first, ≤ -4.2 for the second.

A40C U53A A137C G140C and A40C U53G C76A A91G A115G cannot be ordered by “polymerase ribozyme fitness (log ratio)” value: ≤ -4.2 for the first, ≤ -4.2 for the second.

First: A40C U55A A89C
Second: A40C U55A A107G A142G
The “polymerase ribozyme fitness (log ratio)” value of the first is higher: 0.0362 for the first, ≤ -4.2 for the second.

A40C U55A G88A C108G C118U U130A and A40C U55A G88C cannot be ordered by “polymerase ribozyme fitness (log ratio)” value: ≤ -4.2 for the first, ≤ -4.2 for the second.

Compared with A40C U55G C63U C93U, A40C U55G C85U is higher in “polymerase ribozyme fitness (log ratio)” value: -0.65 for the first, 0.238 for the second.

Going from A40C U55G G59C C75A U82G C96G U111G U148A A150C to A40C U55G G84C C96U C103U C118U, the “polymerase ribozyme fitness (log ratio)” value rises from ≤ -4.2 to -3.51.

A40C U56A G59A C87A A89C G112U A119U G143A and A40C U61A G65A G70U C76A A110G G126A cannot be ordered by “polymerase ribozyme fitness (log ratio)” value: ≤ -4.2 for the first, ≤ -4.2 for the second.

First: A40C U61G U135G U139G
Second: A40C U109C
The “polymerase ribozyme fitness (log ratio)” value of the first is lower: ≤ -4.2 for the first, -3.47 for the second.

Going from A40C U109C C116U C131U A147U to A40G, the “polymerase ribozyme fitness (log ratio)” value rises from -2.36 to -1.51.

A40G A41C A66U C85G A97C A120G and A40G A41C U55A G141C A142C cannot be ordered by “polymerase ribozyme fitness (log ratio)” value: ≤ -4.2 for the first, ≤ -4.2 for the second.

First: A40G A41U
Second: A40G A41U A49U G58C G74U C85A U139G G141C U148C
The “polymerase ribozyme fitness (log ratio)” value of the first is higher: -2.41 for the first, ≤ -4.2 for the second.

A40G A41U A64C C69A A73G G84C and A40G A47C G86U C105G cannot be ordered by “polymerase ribozyme fitness (log ratio)” value: ≤ -4.2 for the first, ≤ -4.2 for the second.

A40G A47G A73G C79A G83U C87U U111C and A40G A49C U146C cannot be ordered by “polymerase ribozyme fitness (log ratio)” value: ≤ -4.2 for the first, ≤ -4.2 for the second.

First: A40G A49G
Second: A40G A49G C85U C95A
The “polymerase ribozyme fitness (log ratio)” value of the first is higher: -3.58 for the first, ≤ -4.2 for the second.

A40G A52C C87A and A40G A52G A91U U102C A138U G143U cannot be ordered by “polymerase ribozyme fitness (log ratio)” value: ≤ -4.2 for the first, ≤ -4.2 for the second.

A40G A52G G86U C108G C132U and A40G A52U A91C C108U G143C U148A cannot be ordered by “polymerase ribozyme fitness (log ratio)” value: ≤ -4.2 for the first, ≤ -4.2 for the second.

A40G A52U C54U U56A U77G G83U C87A G143A and A40G A52U G62A cannot be ordered by “polymerase ribozyme fitness (log ratio)” value: ≤ -4.2 for the first, ≤ -4.2 for the second.

A40G A52U U53A G71A G83U A106U and A40G A64U U134G A142C cannot be ordered by “polymerase ribozyme fitness (log ratio)” value: ≤ -4.2 for the first, ≤ -4.2 for the second.

A40G A66G G67A G84U A107C C116U G126U and A40G A73G C87G A113U cannot be ordered by “polymerase ribozyme fitness (log ratio)” value: ≤ -4.2 for the first, ≤ -4.2 for the second.

First: A40G A73G G86A
Second: A40G A73U A89G C93G U104G A106G U134A
The “polymerase ribozyme fitness (log ratio)” value of the first is higher: -4.16 for the first, ≤ -4.2 for the second.

For A40G A97G, the “polymerase ribozyme fitness (log ratio)” value was -1.8.
